Measurements from publication PMC10726135.
The other results are listed elsewhere or left out. At the low end of the ranking, values are background and their order means little. The protein was read in a cell extract, so binding may be indirect.

Each sequence was assayed against T1, HNF4alpha8 (COS-7 nuclear extract) (UniProt P41235-5) (assay: protein-binding microarray). Conditions: COS-7 nuclear extract on double-stranded Agilent 4x180k PBM; binding buffer, salt, pH and temperature not given; high values mean tight binding; double strand, one strand shown; sequences stand for … in …GCCTAGGGAGATTAGAGTATCGGTCGA.
T1 sequence: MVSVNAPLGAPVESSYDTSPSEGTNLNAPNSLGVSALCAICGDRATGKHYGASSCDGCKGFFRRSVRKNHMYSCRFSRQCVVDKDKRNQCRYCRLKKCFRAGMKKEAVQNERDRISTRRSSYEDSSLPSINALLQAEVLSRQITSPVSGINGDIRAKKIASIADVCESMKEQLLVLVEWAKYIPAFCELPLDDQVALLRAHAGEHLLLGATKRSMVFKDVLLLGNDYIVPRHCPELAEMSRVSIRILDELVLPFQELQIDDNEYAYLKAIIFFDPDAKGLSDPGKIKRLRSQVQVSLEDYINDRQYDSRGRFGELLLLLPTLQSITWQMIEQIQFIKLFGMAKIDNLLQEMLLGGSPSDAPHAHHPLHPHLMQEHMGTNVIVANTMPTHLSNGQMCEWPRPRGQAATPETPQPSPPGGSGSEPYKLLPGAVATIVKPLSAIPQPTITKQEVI

| Sequence | binding signal (log2 normalized intensity) |
| --- | --- |
| TAACCAGTGAAATTGACAAGAGTGTGGCTC | 0.244 |
| GATTGCTTAATGCAAACTCCAGCATGAGGG | -1.31 |
| AAGCAGCATAGGGAGAATGATAAGATATAT | -1.37 |
| TTTGTGTGAGGGAGAAGTTTTATGGCAGGG | 0.341 |
| TCAGCCTGGCTGAAGACCTGTACAGGGACT | 1.98 |
| ATCAAGGAGGACTTTGGAATGGCAGTGCTT | 3.72 |
| GGTAAACAGCCTCTAAGCACGGCCAGGATT | -1.34 |
| GCCACAATTAATGTACCCCCGGAAACACGT | 4.05 |
| GGGAATTACTCTTCTATTACATGGAAGCCT | -0.365 |
| TCGAATGGTATGCTAGAGTACTTGGACTTT | 7.5 |
| ATCCTAGGAGAGCCAAATCTTAAGGGTTAA | 0.92 |
| TTCTGAGGAGAAGAATGAAAGCCAAGGCAG | -1.26 |
| AATACACAGCTAGCAGGTGACAAATCCAGG | -1.4 |
| GGCCGTGGGTGGAAGGAAAAGAGGAAAACC | -1.35 |
| TCTATCTCATTACTAATCCTCTTCTGTCCT | 1.01 |
| GCAAATAAAGCTAACCAGCTCTATCAGTCT | -1.25 |
| TCTGCGTCTTACTAAATGCAGCCTTGGGCA | -0.894 |
| GGAGGTGACCTTTGGTTGTCCTTACTGCTA | 4.22 |
| TATGCTCACTGACCTCTGCCCTACTGTATA | 4.37 |
| ACTGAATGTGACCTTTTGGACCACAGAGTG | 5.97 |
| CCACCTAATTTAGATATCGCTCCAAGAGCC | -1.35 |
| AGTCTGACTACTTCTCACCACCTCTGCTGC | -1.27 |
| TTCCTATCTCTACTTGCCGAAACATTTTCT | -1.29 |
| CAGCCACCAAAGCAGCTAGCAAATACAAGG | -1.4 |

| Sequence | binding signal (log2 normalized intensity) |
| --- | --- |
| TTGACAGGCAACAATTTGAGGGGTCAAGAA | 3.03 |
| CTGACCTCTTTTGGATTTTTCCATATCTGT | 1.57 |
| ACATTTATTGGACTAGGCACAGGAACCTGT | -0.578 |
| CCTTTGTGCTGACTAAGAGGAGAAGCAAAT | -1.32 |
| TCATAGTAAATCCACTTCTGAGGAGAAGAA | -1.32 |
| TTCGGACATTCCAGGGAACAAGGGGTGGAT | -1.13 |
| TTGTCCCTTTTCTATCCAGATGATCTTTAC | 2.82 |
| GCAAGAGTCCAAATTCCTAGCCCTCTTTCA | 1.48 |
| ATGATGAAATTTCCTCTTACCACATCTCAA | -1.47 |
| TTACTTAATCCCTTGGAATGTCCTTTCCTC | 1.96 |
| TGGACTCTGTTTTAGTTGAGTGTGACAAGA | 1.73 |
| TCTGACCAACGCCTCCCTCCTTCCGCGGAC | 0.874 |
| CTCACCTGGCTTCCCTTTGATCTTTCCCTT | 1.83 |
| CAACCACTCTTATCAGACAGGATATTTTGA | -0.524 |
| CTCTCCCCTCGACGCGCCGGCGCAGCCGCG | 1.24 |
| GAGGCTGCTCTCTGTCCCTGCACCCTACCC | 1.89 |
| TTCAGCCATTTTATGACCATGAGGTGACGG | 1.4 |
| TCTTTATTTATTAACTGGAGATAACACAAC | -0.103 |
| GTAGGCATAGGAGAAACACATAAACCCTGA | -1.15 |
| AGCATGCTTGGAATATTTAAGGATCCAGAC | -0.132 |
| ACACCTGTGGGTAATTAATCTGATCGCCCT | 1.6 |
| TCTAATCAGGTCGCTGCCTGCCCCTCTGAC | 3.42 |
| CGGGTCAAGGGTTCAGGGCTCAGTTGACAT | 2.42 |
| GCTCAGGCACATTCTGCTGTGTATCACCTC | 0.776 |

| Sequence | binding signal (log2 normalized intensity) |
| --- | --- |
| AAAATATTGCCAATATCTGCCATCTACTAA | -1.34 |
| TTATCTTGGTGCCTGCAGAGCCTCCCCATT | 2.69 |
| TCACATCTATCTCCCTACCCTCACCCCTGC | 3.82 |
| GGGAATTTCCAAAGAGCAGCTAGCTCCAGT | -1.39 |
| GGTTTATGGCTTATGCATGTTTATGTGAAT | 1.77 |
| GAGGTTCTTGTAAGGTTCTTGTATCTGATC | 1.67 |
| CAAATTTTGATAATTACAGAGCAAGTAGAG | 0.0555 |
| TGTAGAGGAGATGTGGTGGACTTTAACGAC | 3.25 |
| TAACCGAAAGTCTGACCCTTGACCAAGCAG | 4.99 |
| GCAAGGGTCAGAGTAAAGCTCCAGTCTCCT | -1.29 |
| GTAGGCACAAAGGTGCAAAGTACATATTTA | 5.19 |
| ATCTCCAGCTTATCTGTCCATCCCTCACTC | -1.23 |
| CTCCCAAGGTATCCTCCTAGAGTCCAAGGT | 3.51 |
| GCTAAAAGTTGAATTCTTGACTTTGGACTT | 6.55 |
| TCATCAGCACATTGGTGAGAATGGAGGTAG | 0.426 |
| AAGCAACTCCTCTGTACAGCTCTTGTGCTC | -1.23 |
| AGTTTATCTAAGATTCCCCCTACCCTCAAT | 4.68 |
| GAAGGGCAGGGCCTGGGAGATAACCCATCT | -1.24 |
| AAACTGTTCAAGACTTTCAGCCAACGCTGA | -1.35 |
| TAATTGGAAATAATGCGACTTGCCTTGTGT | 1.13 |
| CCAGGCTGATTTAGCTATTTGACCTTCGGC | 5.84 |
| AAAGTATCTAAGGGCCTAGAAGAGTTCCTG | -1.25 |
| CCAGACACTGCTCTAGGCATTGGAGATATG | -1.28 |
| GTGTGTAGACTCCAGGCTTGTCCTTTTGAC | 2.26 |
